From PubChem BioAssay AID652106 (National Center for Advancing Translational Sciences (NCATS), 2013)
Out of some 370,000 compounds screened, about 500 (0.14%) were called active. Inconclusive means that the source gave no clear call. Such entries were picked first, then a sample of the others. The call rests on the fitted dose curve; in most records, active means well fitted activation curve with a large enough effect; inconclusive means small, poorly fitted or top-dose-only effect; inactive means no such curve, though single readings can be large or run the other way. Potencies of inconclusive entries are left out as doubtful fits.

assay: qHTS of alpha-syn Inhibitors; conditions: Yeast expressing alpha-synuclein, BacTiter-Glo, 24 h; Potency: growth rescue unless noted; growth rescue (activation): at 46.1 µM (top of the series) unless noted; further: nearly all actives have a fitted effect of over 65% in size; on growth rescue (activation): % of control where 0% means no effect
How it was run: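 Screening used galactose-induced yeast with toxic alpha-synuclein levels, exposed to compound for 24 hr at 30 deg C. Cell growth, read with BacTiter-Glo luminescence, gave the measured signal.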
Potency means the concentration at half of the fitted maximal effect; tags describe the fitted curve by direction and shape.

| SMILES | Potency | growth rescue (activation) |
| --- | --- | --- |
| CC(=O)Nc1ccc(S(=O)(=O)NC2Cc3ccccc3C2)cc1 | inconclusive [activator, single point] |  |
| Cc1ccc(Nc2c(-c3ccccc3O)nc3cnccn23)cc1 | inconclusive [activator, single point] |  |
| O=C(COc1c(Br)cc(Br)c2cccnc12)Nc1ccccc1F |  | inactive: 5.48% |
| COc1ccc(N(C(=O)c2ccncc2)S(=O)(=O)c2cccs2)cc1 | inconclusive [activator, partial curve] |  |
| CCn1cc(C(=O)NCc2ccco2)c(=O)c2cc(S(=O)(=O)N3CCc4ccccc4C3)ccc21 |  | inactive: 1.71% |
| O=C1C2ON(c3ccc(Br)cc3)C(c3cccnc3)C2C(=O)N1C1CCCCC1 (centres undefined) | inconclusive [activator, full curve, poor fit] |  |
| CC(NC(=O)Cn1ccsc1=N)C12CC3CC(CC(C3)C1)C2 (centres undefined) |  | inactive: -13.2% |
| c1cncc(-c2nc(-c3cccs3)cs2)c1 |  | inactive: 2.35% |
| Cc1ccc(NS(=O)(=O)c2coc(C(N)=O)c2)cc1F | inconclusive [activator, single point] |  |
| Oc1c(CN2CCN(c3ccc(F)cc3)CC2)cc(Cl)c2cccnc12 | inconclusive [activator, single point] |  |
| CCOC(=O)c1c(S(=O)(=O)N2CCc3ccccc32)c(C)n(C)c1C | inconclusive [activator, single point] |  |
| O=C1c2ccccc2NC(c2ccc(Br)s2)N1O (centres undefined) | inconclusive [activator, single point] |  |
| O=C(NC(=S)NC1CCN(Cc2ccccc2)CC1)c1ccc(F)cc1 |  | inactive: -1.7% |
| COc1cc2nc(/C=C/c3cc(OC)c(OC)c(OC)c3)sc2cc1SC |  | inactive: -2.8% |
| COc1ccc(C2CC(=O)N(Cc3ccc(F)cc3)c3ccccc3S2)cc1 (centres undefined) |  | inactive: 11.4% |
| Cc1cc(C)n2nc(C(=O)NCc3ccccc3)nc2n1 |  | inactive: -6.49% |
| CN(CC(=O)Nc1cccc(F)c1)CC(=O)NC(c1ccccc1)c1ccccc1 | inconclusive [activator, single point] |  |
| Cc1nnc(SCc2cc(=O)[nH]c(/N=C(\N)Nc3ccccc3Sc3ccccc3)n2)s1 | inconclusive [activator, single point] |  |
| CCOc1cc(/C=C2\COc3ccccc3C2=O)cc(Br)c1OCC(=O)N(C)C | inconclusive [activator, single point] |  |
| COc1ccc(S(=O)(=O)Nc2cccc3cccnc23)cc1 | inconclusive [activator, single point] |  |
| Cc1ccc(C(=O)NCc2ccccn2)cc1S(=O)(=O)N1CCOCC1 | inconclusive [activator, single point] |  |
| Cc1ccc(C)c2c1cc(C)c1nnc(SCC(=O)c3cccs3)n12 |  | inactive: 15.6% |
| CC(C)(C)OC(=O)NCCCCCNC(=O)c1[nH]cnc1C(=O)Nc1ccc(Cl)cc1 | inconclusive [activator, single point] |  |

| SMILES | Potency | growth rescue (activation) |
| --- | --- | --- |
| O=C(Nc1ccc(S(=O)(=O)N2CCOCC2)cc1)C1CCN(S(=O)(=O)c2ccc(F)cc2)CC1 |  | inactive: -4.06% |
| O=[N+]([O-])c1ccc(NN=Cc2cc(Br)ccc2O)nc1 | inconclusive [activator, full curve] |  |
| O=C(Nc1ccccc1)C1Cc2c(-c3cccc(F)c3)ccnc2O1 (centres undefined) | inconclusive [activator, single point] |  |
| O=C(CSc1nnc(CCCN2C(=O)c3cccc4cccc(c34)C2=O)n1-c1ccccc1)N1CCCCC1 | inconclusive [activator, single point] |  |
| O=C(c1ccc(-c2ccccc2Cl)o1)N1CCN(c2ccccc2O)CC1 | inconclusive [activator, single point] |  |
| COc1ccccc1-n1c(SCC(=O)NC(C)(C)C)nc(O)cc1=O |  | inactive: 2.5% |
| COc1cc(/C=C2\C(=O)N(CCC#N)N=C2C)c(Br)cc1OC(C)C | inconclusive [activator, partial curve] |  |
| CN(Cc1ccccc1)Cc1nc2c(c(=O)n(C)c(=O)n2C)n1CCc1ccccc1 |  | inactive: -1.13% |
| Cc1ccc(S(=O)(=O)N(CCCN(C)C)Cc2ccc3c(c2)OCO3)cc1 | inconclusive [activator, single point] |  |
| CCOc1ccc2nc(N3CCCC(C(=O)NCC4CCCO4)C3)sc2c1 (centres undefined) | inconclusive [activator, single point] |  |
| O=C(CCCCn1c(=O)c2ccccc2n(Cc2ccc(F)cc2)c1=O)NCc1ccco1 |  | inactive: 1.72% |
| COc1cc(C(CC(=O)Nc2ccc(F)cc2F)N2Cc3ccccc3C2=O)cc(OC)c1OC (centres undefined) | inconclusive [activator, partial curve] |  |
| Cc1ccc(-c2nc3cnccn3c2Nc2c(C)cccc2C)o1 | inconclusive [activator, full curve] |  |
| Cc1ccc(NC2(C#N)CCCC2)cc1 |  | inactive: -1.82% |
| CC(C)COC(=O)NCCCOC(=O)Nc1ccccc1 |  | inactive: 2.59% |
| O=C(Cn1cnc2c(NCc3ccccc3)ncnc21)NCc1ccc2[nH]ccc2c1 | inconclusive [activator, single point] |  |
| CN(C)c1ncnc2c1ncn2[C@H]1CN(Cc2ccc(-c3ccccc3)cc2)C[C@@H](CO)O1 | inconclusive [activator, single point] |  |
| Cc1ccc(S(=O)(=O)/N=C(/NC(=S)Nc2ccccc2)c2ccccc2)cc1 | inconclusive [activator, single point] |  |
| CC1(C)N=C(SCC(=O)Nc2ccccc2)C(c2ccc(Cl)cc2)=N1 |  | inactive: -0.2% |
| O=c1c2ccccc2nc(-c2ccc([N+](=O)[O-])cc2)n1O | inconclusive [activator, single point] |  |
| CCOc1ccccc1C(=O)N(C)Cc1cc2ccccc2[nH]c1=O | inconclusive [activator, single point] |  |
| Cc1nn(Cc2ccccc2Cl)c2sc(C(=O)Nc3nccs3)cc12 |  | inactive: 3.3% |
| CCCSc1ccc([C@@H]2[C@@H]3C(=O)N(CC)C(=O)[C@@H]3[C@]3(C(=O)OC)CCCCN23)cc1 | inconclusive [activator, single point] |  |

| SMILES | Potency | growth rescue (activation) |
| --- | --- | --- |
| C=CCn1c(SCC(=O)NCCO)nc2sc(C)c(C)c2c1=O | inconclusive [activator, single point] |  |
| C=CCOc1cccc(C2/C(=C(\O)c3ccc4c(c3)OCCO4)C(=O)C(=O)N2CCN2CCOCC2)c1 (centres undefined) |  | inactive: -0.542% |
| C=CC1CN(C(=O)OCC(Cl)(Cl)Cl)C2CC3c4ccc(OC)cc4NC3C3CC1C2CO3 (centres undefined) | inconclusive [activator, single point] |  |
| CN1C(=S)N(c2cccnc2)C(=O)/C1=C\c1ccc(C(C)(C)C)cc1 | inconclusive [activator, single point] |  |
| CCC1Nc2ncnc(N3CCCCC3)c2N(Cc2ccc(Cl)cc2)C1=O (centres undefined) | inconclusive [activator, single point] |  |
| O=C(O)CCc1ccc(-c2ccccc2)o1 | inconclusive [activator, full curve] |  |
| CCOc1cccc(NC(=O)C2CC(=O)N(C)C(=Nc3cccc(F)c3)S2)c1 (centres undefined) | inconclusive [activator, single point] |  |
| Fc1ccc(-c2nc3ccc(Br)cn3c2Cc2ccccc2)cc1 |  | inactive: 17.5% |
| O=C(Nc1nc2c(F)cc(F)cc2s1)c1ccc([N+](=O)[O-])o1 | inconclusive [activator, single point] |  |
| CCOc1ccc(Cl)cc1-c1cc(C(=O)NCc2cccs2)[nH]n1 | inconclusive [activator, single point] |  |
| Cc1[nH]c(-c2ccc(F)cc2)cc1C(=O)N1CCN(c2ccccc2F)CC1 | inconclusive [activator, partial curve] |  |
| O=C(O)CCn1cc(/C=C/C(=O)c2ccc(Cl)cc2)c(-c2cccc(Br)c2)n1 | inconclusive [activator, single point] |  |
| CC(C)[C@H](NC(=O)c1ccccc1F)C(=O)Nc1ccc2c(c1)OCO2 | inconclusive [activator, single point] |  |
| CCNC(=O)C1=C(O)c2sccc2N(C)S1(=O)=O |  | inactive: 6.23% |
| Cc1cc(C)nc(NS(=O)(=O)c2ccc(N/C=C\C(=O)c3ccc(Cl)cc3)cc2)n1 | inconclusive [activator, partial curve] |  |
| OC[C@@H]1[C@@H](c2ccccc2)C(c2ccccc2)=NN1c1ccccc1 | inconclusive [activator, single point] |  |
| COc1ccc(C2C(C(=O)Nc3cccnc3)=C(C)Nc3nc(-c4cccs4)nn32)cc1OC (centres undefined) | inconclusive [activator, single point] |  |
| Clc1ccc(OCCn2cnc(Cl)c2Cl)cc1 |  | inactive: 19.5% |
| COc1ccc(N2C(=O)CS(=O)(=O)C23C(=O)N(Cc2ccccc2)c2ccccc23)cc1 (centres undefined) | inconclusive [activator, partial curve] |  |
| O=C(c1ccc(-c2cccc(C(F)(F)F)c2)o1)N1CCN(c2ccccc2O)CC1 |  | inactive: 8.53% |
| NNC(=O)/C(=N/Nc1ccccc1)S(=O)(=O)c1ccc(Cl)cc1 | inconclusive [activator, single point] |  |
| O=[N+]([O-])c1ccc(N2CCN(c3ccccc3O)CC2)c(Cl)c1 |  | inactive: 4.85% |
| COc1ccc(NCc2nnc(SCc3ccc(Cl)cc3)n2-c2ccccc2)cc1 | inconclusive [activator, single point] |  |
